Laboratory results from PubChem BioAssay AID924 (National Center for Advancing Translational Sciences (NCATS), 2007).
“And” between values parts separate entries of the source, which are not always exact repeats. Equal entries are not always repeated. The campaign covered roughly 130,000 compounds. About 1,200 (0.92%) were called active. The shares of active, inactive and inconclusive entries below differ from those in the screen. Calls come from the whole dose curve; as a rule, active = well fitted cell-killing curve with a large enough effect; inconclusive = small, poorly fitted or top-dose-only effect; inactive = no such curve, though single readings can be large or run the other way. A potency beside an inconclusive call is a rough fit, not a confirmed value. Where a structure was tested more than once in an assay, its records may differ in their call.

Experiment: qHTS Screen for Compounds that Selectively Target Cancer Cells with p53 Mutations: Cytotoxicity of p53ts Cells at the Permissive Temperature; note: nearly all actives have a fitted effect of over 55% in size;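 for activity change, negative = cytotoxicity: 0% = DMSO and -100% = full killing by reference compound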
Details: H1299-p53A138V at 32C, ATP luminescence viability, 24 h; activity change, negative = cytotoxicity: at 46.1 µM (top of the series)
Summary of the method: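 H1299-p53 A138V cells (temperature-sensitive p53) exposed 24 h to up to 46 uM compound at 32C, where p53 is wild-type in conformation. Viability read as ATP luminescence and normalised to DMSO and 100 uM tamoxifen. AC50 fitted with the Hill equation.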
Potency is the fitted concentration of half-maximal effect; tags give direction and shape of the fitted curve.

SMILES | Potency | activity change, negative = cytotoxicity
CC(=O)Nc1ccc2nc(-c3ccccn3)[nH]c2c1 | active: 3.98 µM | –
Cc1cc(C)c2c(CC(=O)Nc3ccc(F)cc3)coc2c1 | – | inactive: 5.04%
O=C(/C=C\Nc1cccc(F)c1)c1ccc2c(c1)OCO2 | active: 3.98 µM | –
CC(C)c1cc(C(=O)Nc2ccc3c(c2)OCO3)no1 | active: 15.8 µM | –
Cc1ccc(NC(=O)c2cc(S(=O)(=O)N3CCCCC3)c[nH]2)cc1N(C)C | – | inactive: -3.72%
COc1cccc(NC(=O)CSc2nc3n[nH]c(C)c3c(=N)n2-c2cccc(OC)c2)c1 | – | inactive: -4.41%
COc1nc(N)nc(NC23CC4CC(CC(C4)C2)C3)n1 | inconclusive: 10 µM [cytotoxic, partial curve] | –
Oc1ccccc1NCC(O)Cn1ccc2ccccc21 (stereo not drawn) | inconclusive: 31.6 µM [cytotoxic, single point] | –
COC(=O)Cn1ncc2c(C)n(Cc3ccccc3)c(C)c2c1=O | inconclusive: 12.6 µM [cytotoxic, single point] | –
Cc1sc(NC(=O)c2cccs2)c(C(N)=O)c1C | inconclusive: 10 µM [cytotoxic, partial curve] | –
COc1ccccc1NC(=O)c1c(NCc2ccc(C)o2)sc2c1CCC(C)C2 (stereo not drawn) | inconclusive: 31.6 µM [cytotoxic, single point] | –
COc1ccc(S(=O)(=O)c2c(Nc3ccc(F)cc3)sc(C(=O)c3ccc4c(c3)OCO4)c2N)cc1 | – | inactive: 3.3%
O=C(Nc1cnn(C23CC4CC(CC(C4)C2)C3)c1)c1cnn2cccnc12 | inconclusive: 5.01 µM [cytotoxic, partial curve] | –
CC(=O)OC[C@H]1O[C@@H](ON=C(C)C)[C@H](OC(C)=O)[C@@H](OC(C)=O)[C@H]1OC(C)=O | – | inactive: -10.9% [at 9.22 µM]
Cc1cccc(OC(=O)c2cc(-c3ccc4c(c3)OCCO4)on2)c1 | active: 20 µM | –
Cc1nc2ccccc2n1CCc1nc2c3ccccc3nc(SCC(=O)Nc3ccc(Br)cc3F)n2n1 | inconclusive: 25.1 µM [cytotoxic, single point] | –
N#Cc1nc(-c2ccc(COc3ccccc3)o2)oc1NCc1ccccc1 | inconclusive: 35.5 µM [cytotoxic, single point] | –
O=C(Nc1ccccc1)c1cc([N+](=O)[O-])ccc1Cl | inconclusive: 15.8 µM [cytotoxic, single point] | –
Cc1csc(C(C#N)C(=O)c2cc3ccccc3o2)n1 (stereo not drawn) | active: 5.01 µM | –
CCOc1cccc2cc(-c3nc4ccc(C(=O)O)cc4[nH]3)c(=O)oc12 | inconclusive: 12.6 µM [cytotoxic, partial curve] | –
O=C(Nc1ccc(Cn2nnc3ccccc32)cc1)c1ccco1 | inconclusive: 31.6 µM [cytotoxic, single point] | –
COc1ccc(NC(=O)c2oc3ccccc3c2NC(=O)c2cc3ccccc3o2)cc1 | inconclusive: 12.6 µM [cytotoxic, single point] | –
CC(=O)Nc1ccc2oc(-c3ccccc3Br)nc2c1 | inconclusive: 10 µM [cytotoxic, partial curve] | –
Cc1ccc(OC(=O)c2cc(-c3ccc4c(c3)OCCO4)on2)cc1C | inconclusive: 25.1 µM [cytotoxic, single point] | –
CC(=O)Nc1cccc(Oc2ccc3c(c2)C(=O)N(CCC(=O)O)C3=O)c1 | – | inactive: -7.56%

SMILES | Potency | activity change, negative = cytotoxicity
CCc1ccc2ncc3c(-c4ccc(F)cc4)nn(CC(=O)NCc4ccccc4)c3c2c1 | – | inactive: -1.68%
Cc1ccc(C(=O)CC2(O)C(=O)N(CCc3ccccc3)c3ccc(Cl)cc32)cc1 (stereo not drawn) | inconclusive: 35.5 µM [cytotoxic, single point] | –
Cc1ccc(CSc2nc3cccnc3n2Cc2ccc(C(=O)NCCc3ccccc3)cc2)cc1 | inconclusive: 15.8 µM [cytotoxic, partial curve] | –
Cc1oc2ncn(C)c(=O)c2c1C(=O)NC(C)c1ccccc1 (stereo not drawn) | – | inactive: 18.2%
Cc1nnc(NC(=O)C2(c3ccccc3)CCOCC2)s1 | – | inactive: -2.23%
COC(=O)c1c(SCC(=O)Nc2cc(C)cc(C)c2)[nH]c2ccccc2c1=O | inconclusive: 20 µM [cytotoxic, single point] | –
COc1ccccc1Nc1nc2ccccc2n1C | inconclusive: 10 µM [cytotoxic, partial curve] | –
O=C(Nc1nnc(S(=O)(=O)N2CCCC2)s1)c1ccccc1Cl | inconclusive: 15.8 µM [cytotoxic, single point] | –
CCn1c(C(=O)N2CCCC(C(=O)NCCc3ccc(C)cc3)C2)cc2sccc21 (stereo not drawn) | inconclusive: 31.6 µM [cytotoxic, single point] | –
COc1ccc(OC)c(NC(=O)c2ccc(-c3nc(COc4ccccc4)c(C)o3)cc2)c1 | – | inactive: -1.73%
COc1ccc(-c2coc3c(O)c(OC)ccc3c2=O)cc1 | inconclusive: 12.6 µM [cytotoxic, partial curve] | –
COc1ccc(/C=C/C(=O)Nc2ccc(Cl)c(Cl)c2)cc1OC | inconclusive: 17.8 µM [cytotoxic, single point] | –
O=C(Cn1nc(C(F)(F)F)c2c1CCCC2)Nc1ccc(F)c(Cl)c1 | inconclusive: 25.1 µM [cytotoxic, single point] | –
O=C1CC(N2CCOCC2)C(=O)N1c1ccccc1Cl (stereo not drawn) | inconclusive: 25.1 µM [cytotoxic, single point] | –
COc1ccc(NC(=O)Cn2c(=O)n(-c3ccccc3)c(=O)c3ccc(C(=O)NCc4ccc5c(c4)OCO5)cc32)cc1 | inconclusive: 12.6 µM [cytotoxic, single point] | –
Cc1cccc(NC(=O)c2ccc(F)c(S(=O)(=O)N(C)C3CCCCC3)c2)c1 | inconclusive: 3.98 µM [cytotoxic, partial curve] | –
Nc1ccccc1SCc1cn2ccccc2n1 | inconclusive: 10 µM [cytotoxic, partial curve] | –
Cc1ccc(-c2cnc(NCc3ccc(C(C)C)cc3)n2C)cc1 | – | inactive: -10.2%
Cc1ccc(-n2ncc3c(N4CCC(C)CC4)ncnc32)cc1C | inconclusive: 12.6 µM [cytotoxic, partial curve] | –
COc1cccc(Cn2c(=O)c(-c3ccccc3)nc3cnc(N4CCNCC4)nc32)c1 | – | inactive: -4.35%
O=C(COc1ccc(F)cc1)Nc1nccs1 | inconclusive: 10 µM [cytotoxic, partial curve] | –
Cc1ccc(C(C)C)c(OCC(=O)Nc2nc3c(s2)CCCC3)c1 | inconclusive: 1.58 µM [cytotoxic, full curve, poor fit] | –
CCCC[C@]1(C2CCCC2)Cc2cc(OCC(=O)O)c(Cl)c(Cl)c2C1=O | – | inactive: 14.3%
CS(=O)(=O)c1ccc2nc(NC(=O)c3ccco3)sc2c1 | active: 12.6 µM | –
CCOC(=O)c1cc(-c2ccc(C)cc2)n(CC(=O)Nc2ccc(OC)c(Cl)c2)c1C | inconclusive: 12.6 µM [cytotoxic, partial curve] | –

SMILES | Potency | activity change, negative = cytotoxicity
CCC(=O)NC(=Nc1nc2ccccc2s1)NC(=O)CC | active: 15.8 µM | –
Cc1ccc(-c2cc3nc(C)cc(NCc4ccco4)n3n2)cc1 | inconclusive: 10 µM [cytotoxic, partial curve] | –
CCn1cnc2cc(NC(=O)c3ccco3)ccc21 | active: 12.6 µM | –
CN(C)CCCNc1ncnc2nc[nH]c12 | – | inactive: 9.02% [at 9.22 µM]
O=C(NC1CCCCC1)c1ccc(N2CCCC2=O)cc1 | – | inactive: -15.6%
Cc1ccc2cc3cc(C(=O)N(C)c4ccccc4C)oc3nc2c1 | inconclusive: 12.6 µM [cytotoxic, partial curve] | –
CC(C)(C)c1ccc(Cn2nnc3c(=O)[nH]c(C4CCCN(C(=O)Cc5cccs5)C4)nc32)cc1 (stereo not drawn) | – | inactive: 29.2%
c1ccc(-c2noc(-c3ccc4ccccc4c3)n2)nc1 | active: 0.316 µM | –
OC(CN1CCC(Cc2ccc(F)cc2)CC1)c1ccc(Cl)cc1 (stereo not drawn) | inactive | –
CCOC(=O)[C@@]12C[C@@H]1/C(=N/O)c1ccccc1O2 | inactive | –
Cc1cc(Cl)ccc1NC(=O)c1cc2ccccn2n1 | active: 10 µM | –
CCn1cc(C(=O)NCc2ccc(F)cc2)c(=O)c2cc(S(=O)(=O)N(C)C)ccc21 | – | inactive: -3.52%
Cc1cc2nc(-c3cccc(NC(=O)c4ccc(Br)o4)c3C)oc2cc1C | inconclusive: 12.6 µM [cytotoxic, partial curve] | –
Cc1cccc(N2CCN(C(=O)c3ccc(NC(=O)c4nsc5ccccc45)cc3)CC2)c1C | inconclusive: 31.6 µM [cytotoxic, single point] | –
Cc1nc2c(C(=O)NCCc3ccccc3)c[nH]n2c(=O)c1Cc1ccc(F)cc1Cl | inconclusive: 12.6 µM [cytotoxic, partial curve] | –
CN1CCN(c2ncc3nc(-c4cn(C)c5ccccc45)c(=O)n(Cc4cccs4)c3n2)CC1 | inconclusive: 10 µM [cytotoxic, single point] | –
O=C(O)c1cc(-c2ccco2)nc2ccccc12 | inconclusive: 10 µM [cytotoxic, partial curve] | –
CC(C)CSc1ccccc1NC(=O)c1sc2nc(-c3ccncc3)ccc2c1N | – | inactive: -4.51%
O=C(Nc1ccc(N2CCOCC2)c(Cl)c1)c1ccc(Br)o1 | inconclusive: 10 µM [cytotoxic, partial curve] | –
CC(O)C(=O)O (stereo not drawn) | inconclusive: 0.0251 µM [cytotoxic, full curve, poor fit] | –
CN1CCc2cccc3c2[C@@H]1Cc1ccc(O)c(O)c1-3 | active: 20 µM and active: 31.6 µM | –
Cc1nn(C(C)(C)C)c(OC(=O)c2cccc(F)c2)c1Sc1ccccc1 | inconclusive: 25.1 µM [cytotoxic, single point] | –
Cc1nn(-c2ccccc2)c(Cl)c1/C=N/NC(=O)OC(C)(C)C | inconclusive: 0.01 µM [cytotoxic, full curve] | –
